Patent US20090023727A1, “PHTHALAZINONE DERIVATIVES” (priority 2007, published 2009)

Target: Mammalian PARP, isolated from Hela cell nuclear extract (Homo sapiens, UniProt P09874)
Test: PARP inhibitory action assay (FlashPlate, 3H-NAD scintillation)
Details: PARP enzyme activity, NAD 5 μM, 30° C., 45 minutes

Row | IC50 | SMILES
1 | 4.8 nM | O=C(c1cccc(Cc2n[nH]c(=O)c3c2CCCC3)c1)N1CCN(C(=O)C2CC2)CC1 [5a]
2 | 5.2 nM | O=C(c1cccc(Cc2n[nH]c(=O)c3c2CCCC3)c1)N1CCC(N(C2CC2)S(=O)(=O)c2ccc(Cl)cc2)CC1 [5b]
3 | 4.1 nM | O=C(c1cccc(Cc2n[nH]c(=O)c3c2CCCC3)c1)N1CCC(Oc2ccc(Cl)cc2)CC1 [5c]
4 | 3.5 nM | O=C(c1cccc(Cc2n[nH]c(=O)c3c2CCCC3)c1)N1CCN(C(=O)C2CCCO2)CC1 (stereo not shown) [5d]
5 | 7.3 nM | CN(C)C1CCN(C(=O)c2cccc(Cc3n[nH]c(=O)c4c3CCCC4)c2)CC1 [5e]
6 | 5.5 nM | O=C(c1cccc(Cc2n[nH]c(=O)c3c2CCCC3)c1)N1CCN(c2cccnc2)CC1 [5f]
7 | 18 nM | O=C(c1cccc(Cc2n[nH]c(=O)c3c2CCCC3)c1)N1CCN(CCO)CC1 [5g]
8 | 5.8 nM | O=C(c1cccc(Cc2n[nH]c(=O)c3c2CCCC3)c1)N1CCNCC1 [5h]
9 | 3 nM | O=C(c1cccc(Cc2n[nH]c(=O)c3c2CCCC3)c1)N1CCN(c2ccccn2)CC1 [5i]
10 | 5 nM | O=C(c1cccc(Cc2n[nH]c(=O)c3c2CCCC3)c1)N1CCC(OC2CCCC2)CC1 [5k]
11 | 6 nM | CC(C)(C)OC1CCN(C(=O)c2cccc(Cc3n[nH]c(=O)c4c3CCCC4)c2)CC1 [5l]
12 | 2.9 nM | O=C(c1cc(Cc2n[nH]c(=O)c3c2CCCC3)ccc1F)N1CCN(C(=O)C2CC2)CC1 [10a]
13 | 4 nM | O=C(c1cc(Cc2n[nH]c(=O)c3c2CCCC3)ccc1F)N1CCN(c2cccc(C(F)(F)F)n2)CC1 [10ab]
14 | 6 nM | O=C(c1cc(Cc2n[nH]c(=O)c3c2CCCC3)ccc1F)N1CCN(c2ncncn2)CC1 [10ac]
15 | 3 nM | Cc1cccnc1N1CCN(C(=O)c2cc(Cc3n[nH]c(=O)c4c3CCCC4)ccc2F)CC1 [10ad]
16 | 6 nM | Cc1ccnc(N2CCN(C(=O)c3cc(Cc4n[nH]c(=O)c5c4CCCC5)ccc3F)CC2)c1 [10ae]
17 | 3 nM | N#Cc1cccnc1N1CCN(C(=O)c2cc(Cc3n[nH]c(=O)c4c3CCCC4)ccc2F)CC1 [10af]
18 | 7.3 nM | COCCN1CCN(C(=O)c2cc(Cc3n[nH]c(=O)c4c3CCCC4)ccc2F)CC1 [10b]
19 | 2.7 nM | O=C(c1cc(Cc2n[nH]c(=O)c3c2CCCC3)ccc1F)N1CCN(c2ncccn2)CC1 [10c]
20 | 3.3 nM | O=C(c1cc(Cc2n[nH]c(=O)c3c2CCCC3)ccc1F)N1CCC(N(C2CC2)S(=O)(=O)c2ccc(Cl)cc2)CC1 [10d]
21 | 5.3 nM | COC1CCN(C(=O)c2cc(Cc3n[nH]c(=O)c4c3CCCC4)ccc2F)CC1 [10e]
22 | 3.2 nM | O=C(c1cc(Cc2n[nH]c(=O)c3c2CCCC3)ccc1F)N1CCC(Oc2ccc(Cl)cc2)CC1 [10f]
23 | 2.2 nM | O=C(c1cc(Cc2n[nH]c(=O)c3c2CCCC3)ccc1F)N1CCN(C(=O)C2CCCO2)CC1 (stereo not shown) [10g]
24 | 4.6 nM | O=C(c1cc(Cc2n[nH]c(=O)c3c2CCCC3)ccc1F)N1CCC(N2CCCC2)CC1 [10h]
25 | 5.8 nM | CN(C)C1CCN(C(=O)c2cc(Cc3n[nH]c(=O)c4c3CCCC4)ccc2F)CC1 [10i]
26 | 4.2 nM | O=C(c1cc(Cc2n[nH]c(=O)c3c2CCCC3)ccc1F)N1CCN(c2cccnc2)CC1 [10j]

Row | IC50 | SMILES
27 | 5.9 nM | O=C(c1cc(Cc2n[nH]c(=O)c3c2CCCC3)ccc1F)N1CCN(c2ccncc2)CC1 [10k]
28 | 5.4 nM | O=C(c1cc(Cc2n[nH]c(=O)c3c2CCCC3)ccc1F)N1CCNCC1 [10l]
29 | 52 nM | CCS(=O)(=O)N1CCN(C(=O)c2cc(Cc3n[nH]c(=O)c4c3CCCC4)ccc2F)CC1 [10m]
30 | 4 nM | O=C(c1cc(Cc2n[nH]c(=O)c3c2CCCC3)ccc1F)N1CCC(OC2CCCC2)CC1 [10o]
31 | 2 nM | CS(=O)(=O)N1CCN(C(=O)c2cc(Cc3n[nH]c(=O)c4c3CCCC4)ccc2F)CC1 [10r]
32 | 2 nM | CC(C)COC1CCN(C(=O)c2cc(Cc3n[nH]c(=O)c4c3CCCC4)ccc2F)CC1 [10s]
33 | 3 nM | CCCS(=O)(=O)N1CCN(C(=O)c2cc(Cc3n[nH]c(=O)c4c3CCCC4)ccc2F)CC1 [10t]
34 | 4 nM | O=C(c1cc(Cc2n[nH]c(=O)c3c2CCCC3)ccc1F)N1CCC(Oc2ccccn2)CC1 [10u]
35 | 4 nM | O=C(c1cc(Cc2n[nH]c(=O)c3c2CCCC3)ccc1F)N1CCC(OCC2CC2)CC1 [10v]
36 | 4 nM | CCOC1CCN(C(=O)c2cc(Cc3n[nH]c(=O)c4c3CCCC4)ccc2F)CC1 [10x]
37 | 3 nM | O=C(NCc1ccccc1)C1CCN(C(=O)c2cc(Cc3n[nH]c(=O)c4c3CCCC4)ccc2F)CC1 [17a, N-benzyl-1-[2-fluoro-5-[(4-oxo-5,6,7,8-tetrahydro-3H-phthalazin-1-yl)methyl]benzoyl]piperidine-4-carboxamide]
38 | 2 nM | O=C(NC1CCC1)C1CCN(C(=O)c2cc(Cc3n[nH]c(=O)c4c3CCCC4)ccc2F)CC1 [17b, N-cyclobutyl-1-[2-fluoro-5-[(4-oxo-5,6,7,8-tetrahydro-3H-phthalazin-1-yl)methyl]benzoyl]piperidine-4-carboxamide]
39 | 7 nM | O=C(NCC1CC1)C1CCN(C(=O)c2cc(Cc3n[nH]c(=O)c4c3CCCC4)ccc2F)CC1 [17c, N-(cyclopropylmethyl)-1-[2-fluoro-5-[(4-oxo-5,6,7,8-tetrahydro-3H-phthalazin-1-yl)methyl]benzoyl]piperidine-4-carboxamide]
40 | 6 nM | CC(C)CNC(=O)C1CCN(C(=O)c2cc(Cc3n[nH]c(=O)c4c3CCCC4)ccc2F)CC1 [17d, 1-[2-fluoro-5-[(4-oxo-5,6,7,8-tetrahydro-3H-phthalazin-1-yl)methyl]benzoyl]-N-(2-methylpropyl)piperidine-4-carboxamide]
41 | 7 nM | O=C(c1cc(Cc2n[nH]c(=O)c3c2CCCC3)ccc1F)N1CCC(C(=O)N2CCOCC2)CC1 [17e, 4-[[4-fluoro-3-[4-(morpholine-4-carbonyl)piperidine-1-carbonyl]phenyl]methyl]-5,6,7,8-tetrahydro-2H-phthalazin-1-one]
42 | 4 nM | CC1CCCCN1C(=O)C1CCN(C(=O)c2cc(Cc3n[nH]c(=O)c4c3CCCC4)ccc2F)CC1 (stereo not shown) [17f, 4-[[4-fluoro-3-[4-(2-methylpiperidine-1-carbonyl)piperidine-1-carbonyl]phenyl]methyl]-5,6,7,8-tetrahydro-2H-phthalazin-1-one]
43 | 9 nM | CN(C)CCN(C)C(=O)C1CCN(C(=O)c2cc(Cc3n[nH]c(=O)c4c3CCCC4)ccc2F)CC1 [17g, N-(2-dimethylaminoethyl)-1-[2-fluoro-5-[(4-oxo-5,6,7,8-tetrahydro-3H-phthalazin-1-yl)methyl]benzoyl]-N-methylpiperidine-4-carboxamide]
44 | 3 nM | CN(C1CCN(C(=O)C2CCN(C(=O)c3cc(Cc4n[nH]c(=O)c5c4CCCC5)ccc3F)CC2)CC1)S(=O)(=O)C1CC1 [17h, N-[1-[1-[2-fluoro-5-[(4-oxo-5,6,7,8-tetrahydro-3H-phthalazin-1-yl)methyl]benzoyl]piperidine-4-carbonyl]piperidin-4-yl]-N-methylcyclopropanesulfonamide]
45 | 5 nM | COCCOC1CCN(C(=O)c2cc(Cc3n[nH]c(=O)c4c3CCCC4)ccc2F)CC1 [18a, 4-(4-Fluoro-3-(4-(2-methoxyethoxy)piperidine-1-carbonyl)benzyl)-5,6,7,8-tetrahydrophthalazin-1(2H)-one]
46 | 5 nM | COc1ccc(OC2CCN(C(=O)c3cc(Cc4n[nH]c(=O)c5c4CCCC5)ccc3F)CC2)cc1 [18b, 4-(4-fluoro-3-(4-(4-methoxyphenoxy)piperidine-1-carbonyl)benzyl)-5,6,7,8-tetrahydrophthalazin-1(2H)-one]
47 | 2 nM | COc1ccccc1OC1CCN(C(=O)c2cc(Cc3n[nH]c(=O)c4c3CCCC4)ccc2F)CC1 [18d, 4-(4-fluoro-3-(4-(2-methoxyphenoxy)piperidine-1-carbonyl)benzyl)-5,6,7,8-tetrahydrophthalazin-1(2H)-one]
48 | 3 nM | CCCOC1CCN(C(=O)c2cc(Cc3n[nH]c(=O)c4c3CCCC4)ccc2F)CC1 [18e, 4-(4-fluoro-3-(4-propoxypiperidine-1-carbonyl)benzyl)-5,6,7,8-tetrahydrophthalazin-1(2H)-one]
49 | 5 nM | CN(C1CCN(C(=O)c2cc(Cc3n[nH]c(=O)c4c3CCCC4)ccc2F)CC1)S(=O)(=O)C1CC1 [compound 14, N-(1-(2-fluoro-5-((4-oxo-3,4,5,6,7,8-hexahydrophthalazin-1-yl)methyl)benzoyl)piperidin-4-yl)-N-methylcyclopropanesulfonamide]
50 | 5 nM | O=C(NC1CCN(C(=O)c2cc(Cc3n[nH]c(=O)c4c3CCCC4)ccc2F)CC1)c1ccccc1 [compound 19, N-(1-(2-Fluoro-5-((4-oxo-3,4,5,6,7,8-hexahydrophthalazin-1-yl)methyl)benzoyl)piperidin-4-yl)benzamide]
51 | 3 nM | CC(C)OC1CCN(C(=O)c2cc(Cc3n[nH]c(=O)c4c3CCCC4)ccc2F)CC1 [compound 20, 4-(4-Fluoro-3-(4-isopropoxypiperidine-1-carbonyl)benzyl)-5,6,7,8-tetrahydrophthalazin-1(2H)-one]
52 | 8 nM | CC(C)OC1CCN(C(=O)c2cccc(Cc3n[nH]c(=O)c4c3CCCC4)c2)CC1 [compound 21, 4-(3-(4-isopropoxypiperidine-1-carbonyl)benzyl)-5,6,7,8-tetrahydrophthalazin-1(2H)-one]
